Data on one substance can be found in FireProtDB (doi:10.1021/bi050921s).

For this series the following is noted: Escherichia coli (strain K12); pH 7; 25 °C; GdnHCl; Fluorescence; phosphate 10 mM; reversible: yes.

Several values for one entry are separate records, joined by “and”; a condition that tells them apart may be missing. Equal values may be shown once.

Consider “Thioredoxin 1 wild type (sequence not shown)”, for which the denaturant m value was 3.7 kcal/mol/M and 3.6 kcal/mol/M; the “denaturant midpoint (higher = more stable)” value is 2.6 M and 1.7 M; the unfolding free energy was 9.6 kcal/mol and 6.2 kcal/mol.
